Results filed as inconclusive are left out. Calls follow the shape of the dose curve; as a rule, active = well fitted curve in the direction sought with a large enough effect in the repeat runs; inconclusive = weak or mixed curves; inactive = no such curve, though single readings can be large; an effect the other way counts as inactive or inconclusive. Some compounds were tested as several samples or in several runs, with calls that do not always agree. Not every entry of the source has a single result; some have several. They are shown here; other results are not. An entry can have further records. Values that stand side by side repeat one measurement (runs, samples, wells, individuals or studies). What stands in brackets tells the records apart. Letters hold for one entry only.
Potency is read from the fitted curve at half-maximal effect.

The nature of one experiment: qHTS assay to identify small molecule antagonists of the constitutive androstane receptor (CAR) signaling pathway - cell viability counter screen (AID 1224837). Also: nearly all actives have a fitted effect of over 45% in size. The conditions noted are these: HepG2-CYP2B6-hCAR viability, CellTiter-Fluor, 23 h, co-treated with 50 nM CITCO; series mostly up to 92.4 µM. The method, boiled down: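 Using CellTiter-Fluor, viability is scored in HepG2 cells stably carrying hCAR and a 2.2kb CYP2B6 reporter after 23 hr compound exposure across 15 concentrations, with CITCO present at 50 nM.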
As to `Cc1cc(Cc2cc(C)cc(C(C)(C)C)c2O)c(O)c(C(C)(C)C)c1`, the Potency entry is “active: 61.4 µM [sample A] and inactive [sample B]”.
Still for that read-out and setting: next, `CCCCCCCCCCCCc1ccccc1O`: “inactive [sample A] and active: 61.1 µM [sample B]”.
On the same count and under the same terms, the result for `CC(C)CCCCCCc1ccc(O)cc1` reads “active: 6.98 µM [sample A] and inactive [sample B]”; that for `Cc1ccc(-c2cc(C(F)(F)F)nn2-c2ccc(S(N)(=O)=O)cc2)cc1`, “active: 61.1 µM [sample A] and inactive [sample B]”.
On the same count and under the same terms, the result for `Nc1ccc(O)cc1` reads “active: 28.4 µM [sample A] and inactive [sample B]”.
Turning to `Cc1cc(OCCOCC[N+](C)(C)Cc2ccccc2)ccc1C(C)(C)CC(C)(C)C`, the Potency result was “active: 60.8 µM [sample A] and inactive [sample B]”.

A short description of the next experiment: A CellTox Green Cytotoxicity Assay to monitor cytotoxicity in HEK293 cells - 24 hour (AID 1224875). Also: nearly all actives have a fitted effect of over 45% in size. Conditions: CellTox Green fluorescence; series mostly up to 76.8 µM. The method, boiled down: (§1)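 Seeding of HEK293 cells together with cytotoxicity dye preceded a 5 h incubation at 37 C/5% CO2. Test compounds in DMSO were then added and fluorescence monitored across 40 h.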
With `COC(=O)c1cccc(C(=O)OC)c1`, the Potency entry is “inactive [sample A] and active: 43.6 µM [sample B]”.
On the same count and under the same terms, the result for `CCC(=O)/C=C/C1C(C)=CCCC1(C)C` (stereo not given) reads “active: 49.1 µM [sample A] and inactive [sample B]”; that for `CC(=O)Nc1ccc(C(=O)CCl)cc1`, “inactive [sample A] and active: 17.4 µM [sample B]”; that for `Oc1c(Cl)cc(Cl)cc1Sc1cc(Cl)cc(Cl)c1O`, “active: 43.8 µM [sample A] and active: 43.6 µM [sample B] and inactive [sample C]”.
For `Oc1c(Cl)cc(Cl)c(Cl)c1Cc1c(O)c(Cl)cc(Cl)c1Cl`, the Potency result was “active: 48.9 µM [sample A] and active: 49 µM [sample B] and inactive [sample C]”.
On the same count and under the same terms, next, `CCN(CC)C(=S)SSC(=S)N(CC)CC`: “active: 224 nM [sample A] and inactive [sample B]”; `COC(=O)/C=C/c1ccccc1`: “inactive [sample A] and active: 21.9 µM [sample B]”.

Another experiment can be described thus: A CellTox Green Cytotoxicity Assay to monitor cytotoxicity in HEK293 cells - 16 hour (AID 1224888). Also: nearly all actives have a fitted effect of over 35% in size. The conditions noted are these: CellTox Green fluorescence; series mostly up to 76.8 µM. In short, it runs like this: as §1
Consider `COC(=O)c1cccc(C(=O)OC)c1`, for which the Potency entry is “inactive [sample A] and active: 43.6 µM [sample B]”.
In the case of `CCC(=O)/C=C/C1C(C)=CCCC1(C)C` (stereo not given), the Potency entry was “active: 39 µM [sample A] and inactive [sample B]”.
In the case of `CCc1cc(C(C)(C)C)c(O)c(C(C)(C)C)c1`, the Potency entry was “inactive [sample A] and active: 21.9 µM [sample B]”.
Still for that read-out and setting: next, `Oc1c(Cl)cc(Cl)cc1Sc1cc(Cl)cc(Cl)c1O`: “active: 43.6 µM [sample A] and inactive [sample B]”; `CCN(CC)C(=S)SSC(=S)N(CC)CC`: “inactive [sample A] and active: 56.2 µM [sample B] and inactive [sample C]”; `COC(=O)/C=C/c1ccccc1`: “inactive [sample A] and active: 21.9 µM [sample B]”.

A further experiment is described as follows: qHTS assay to identify small molecule antagonists of the estrogen receptor alpha (ER-alpha) signaling pathway using the BG1 cell line in the presence of 0.1 nM 17-beta-estradiol - cell viability counter screen (AID 1259241). Also: nearly all actives have a fitted effect of over 40% in size. Conditions: VM7Luc4E2 (BG1) viability, CellTiter-Fluor protease, 22 h, 0.1 nM estradiol agonist added; series mostly up to 92.4 µM. The method, boiled down:
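Following 5 days in phenol red-free medium with charcoal-stripped serum, VM7Luc4E2 cells received test compounds alongside 0.1 nM 17beta-estradiol (final) at 37C for 22 hr. Live cells were then quantified via protease-substrate fluorescence.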
For orientation: qHTS replaces the single test concentration by a dilution series.
Consider `Oc1c(Cl)cc(Cl)c(Cl)c1Cc1c(O)c(Cl)cc(Cl)c1Cl`, for which the Potency entry was “inactive [sample A] and inactive [sample B] and active: 18.8 µM [sample C]”.
As to `CC(C)CCCCCCc1ccc(O)cc1`, the Potency result was “active: 15.6 µM [sample A] and inactive [sample B]”.
With `Nc1ccc(O)cc1`, the Potency result was “active: 28.4 µM [sample A] and inactive [sample B]”.

Another experiment is described as follows: qHTS assay to identify small molecule antagonists of the progesterone receptor (PR) signaling pathway - cell viability counter screen (AID 1346798). Also: nearly all actives have a fitted effect of over 50% in size. The conditions noted are these: PR-UAS-bla HEK293T viability, CellTiter-Glo luminescence, 16 h; series mostly up to 92.4 µM. In short, it runs like this:
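CellTiter-Glo luminescence; PR-UAS-bla HEK293T, 3,000 cells/well; compound + R5020, 16 hr, 37C/5% CO2; 30 min RT before read.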
Consider `CCCCCCC(O)CCCCCCCCCCC(=O)O` (stereo not given), for which the Potency entry was “inactive [sample A] and active: 27.3 µM [sample B]”.
For `CCCCC(CC)COC(=O)CC(C(=O)OCC(CC)CCCC)S(=O)(=O)O` (stereo not given), the Potency result is “inactive [sample A] and active: 30.6 µM [sample B]”.
As to `O=S(=O)(O)c1ccc2nc(-c3ccccc3)[nH]c2c1`, the Potency entry is “active: 26 µM [sample A] and inactive [sample B]”.

Source of the values: PubChem BioAssay (Tox21).
